The values that follow come from the antibiotic and cytotoxicity screens of Wong et al. (2023).

This is one part of the list.

This test concerns HepG2. The test is described as follows: cytotoxicity call (relative viability < 0.9). As to conditions: 10 µM.
Take `COc1ccc(S(=O)(=O)Nc2ccc3c(c2)CC(=O)N([C@H](C)CO)C[C@@H](C)[C@H](CN(C)S(C)(=O)=O)O3)cc1`: the cytotoxicity call is “inactive”.

With `CC(=O)Nc1nnc2n1CCS2`, the cytotoxicity call is “inactive”. In the case of `C[C@@H](O)C#Cc1cnc2c(c1)C(=O)N([C@@H](C)CO)C[C@H](C)[C@@H](CN(C)C(=O)CN1CCOCC1)O2` it was “inactive”. In the case of `COc1ccc(S(=O)(=O)N(C)C[C@@H]2OCCCC[C@@H](C)Oc3ccc(NC(=O)C4CCCCC4)cc3C(=O)N([C@H](C)CO)C[C@H]2C)cc1` it was “active”; in that of `C[C@@H]1CN([C@H](C)CO)C(=O)c2cc(NC(=O)Nc3ccc(F)cc3)ccc2O[C@@H](C)CCCCO[C@H]1CN(C)Cc1ccccc1`, “active”; in that of `CC#CCn1c(N2CCC[C@@H](N)C2)nc2c1c(=O)n(Cc1nc(C)c3ccccc3n1)c(=O)n2C`, “active”. Next, `CCCCc1c(C)nc2ccc(Br)cc2c1SC(N)N`: “inactive”; `C[C@H](CO)N1C[C@H](C)[C@@H](CN(C)S(=O)(=O)c2ccccc2)Oc2ccc(NS(=O)(=O)c3ccccc3)cc2CC1=O`: “inactive”; `C[C@H](CO)N1C[C@H](C)[C@H](CN(C)S(=O)(=O)c2ccccc2)Oc2ccc(NC(=O)CCN3CCOCC3)cc2CC1=O`: “inactive”.

As for `C[C@@H]1CN([C@H](C)CO)C(=O)Cc2cc(NS(=O)(=O)c3cn(C)cn3)ccc2O[C@H]1CN(C)Cc1ccc2c(c1)OCO2`, the cytotoxicity call is “inactive”.

For the compound `C[C@H](CO)N1C[C@H](C)[C@H](CN(C)S(=O)(=O)c2ccc(F)cc2)Oc2ccc(NS(C)(=O)=O)cc2C1=O`, the cytotoxicity call was “inactive”.

As for `Cc1noc(C)c1S(=O)(=O)N(C)C[C@H]1Oc2ccc(NC(=O)NC3CCCCC3)cc2CC(=O)N([C@H](C)CO)C[C@@H]1C`, the cytotoxicity call was “inactive”.

For the compound `COc1ccc(NC(=O)N(C)C[C@@H]2OCCCC[C@@H](C)Oc3ccc(NC(=O)Nc4ccccc4)cc3C(=O)N([C@H](C)CO)C[C@@H]2C)cc1`, the cytotoxicity call was “inactive”.

Turning to `Cn1cc(N2C[C@]3(CNCCOC3)OCC2=O)cn1`, the cytotoxicity call was “inactive”. Consider `CC(C)NC(=O)N(C)C[C@H]1Oc2c(NS(=O)(=O)c3cn(C)cn3)cccc2C(=O)N([C@@H](C)CO)C[C@H]1C`, for which the cytotoxicity call was “inactive”.

On to `CCOc1ccc(Nc2nc3c(=O)nc[nH]c3n2[C@H]2O[C@@H](CO)[C@@H](O)[C@@H]2O)cc1`, for which the cytotoxicity call was “inactive”. For the compound `COc1ccc(S(=O)(=O)Nc2ccc3c(c2)C(=O)N([C@H](C)CO)C[C@H](C)[C@@H](CN(C)Cc2ccncc2)O3)cc1`, the cytotoxicity call was “inactive”.

Take `C[C@H](CO)N1C[C@H](C)[C@H](CN(C)S(=O)(=O)c2cccs2)Oc2ncc(C#Cc3ccccc3)cc2C1=O`: the cytotoxicity call is “inactive”. On to `COc1cccc([C@@H](NC(=O)C2CCN(Cc3ccc(Oc4ccccc4)cc3)CC2)c2ccccn2)c1`, for which the cytotoxicity call is “inactive”.

As for `C[C@H]1CN([C@@H](C)CO)C(=O)Cc2cc(NC(=O)Cc3cn(C)c4ccccc34)ccc2O[C@H]1CN(C)S(=O)(=O)c1cn(C)cn1`, the cytotoxicity call was “inactive”.

`C[C@H]1CN([C@@H](C)CO)C(=O)Cc2cc(NC(=O)C3CC3)ccc2O[C@H]1CN(C)C(=O)Nc1ccc(F)cc1`: the cytotoxicity call was “inactive”. In the case of `C[C@H](CO)N1C[C@H](C)[C@@H](CN(C)C(=O)c2cccc(F)c2)Oc2cc(C#CC3CC3)ccc2S1(=O)=O` it was “inactive”; in that of `Cc1cc(C(=O)Nc2cccc3c2O[C@H](CN(C)S(=O)(=O)c2ccccc2)[C@@H](C)CN([C@@H](C)CO)C3=O)n(C)n1`, “inactive”; in that of `C[C@@H]1CCCCO[C@@H](CN(C)S(C)(=O)=O)[C@@H](C)CN([C@@H](C)CO)C(=O)c2cc(NS(=O)(=O)c3ccc(F)cc3)ccc2O1`, “inactive”. In the case of `C[C@H](CO)N1C[C@H](C)[C@@H](CN(C)CC2CCCCC2)OCCCC[C@H](C)Oc2ccc(NS(=O)(=O)c3cccs3)cc2C1=O` it was “inactive”; in that of `C[C@@H]1CCCCO[C@@H](CN(C)Cc2ccncc2)[C@H](C)CN([C@@H](C)CO)C(=O)c2cc(NS(=O)(=O)c3ccc(Cl)cc3)ccc2O1`, “inactive”; in that of `COCC#Cc1cnc2c(c1)C(=O)N([C@H](C)CO)C[C@H](C)[C@@H](CN(C)C(=O)Nc1cc(F)ccc1F)O2`, “inactive”.

Turning to `CC(C)NC(=O)Nc1ccc2c(c1)CC(=O)N([C@H](C)CO)C[C@H](C)[C@H](CN(C)S(=O)(=O)c1ccc(F)cc1)O2`, the cytotoxicity call was “inactive”.

Consider `Cc1ccc(NC(=O)c2cc(=O)[nH]c(=O)[nH]2)cc1`, for which the cytotoxicity call is “inactive”. In the case of `CN(C)[C@@H]1C(=O)[C@@H](C(=O)NCNCCCC[C@H](N)C(=O)O)C(=O)[C@@]2(O)C(=O)[C@@H]3C(=O)c4c(O)cccc4[C@@](C)(O)[C@H]3C[C@@H]12` it was “inactive”; in that of `Cc1noc(C)c1NC(=O)Nc1ccc2c(c1)C(=O)N([C@@H](C)CO)C[C@H](C)[C@@H](CN(C)S(=O)(=O)c1ccc(F)cc1)OCCCC[C@H](C)O2`, “inactive”. In the case of `C[C@H]1CN([C@@H](C)CO)S(=O)(=O)c2ccc(-c3cccc(C(=O)N(C)C)c3)cc2O[C@H]1CN(C)C(=O)Cc1ccccn1` it was “inactive”. Next, `C/C(=C\CO)CC[C@H](C)CCC[C@H](C)CCCC(C)C`: “inactive”. Take `Nc1nc(F)nc2c1ncn2C1OC(COP(=O)(O)O)C(O)C1O` (stereo not given): the cytotoxicity call was “inactive”. For the compound `CN(C)C(=O)C[C@H]1CC[C@H](NC(=O)C2CC2)[C@H](CO)O1`, the cytotoxicity call is “inactive”. In the case of `CO[C@H](CN(C)S(=O)(=O)c1cccc(Cl)c1)[C@@H](C)CN([C@H](C)CO)S(=O)(=O)c1cccc(Cl)c1` it was “inactive”.

With `CC[C@H](C)[C@@H]([C@@H](CC(=O)N1CCC[C@H]1[C@H](OC)[C@@H](C)C(=O)N[C@@H](Cc1ccccc1)c1nccs1)OC)N(C)C(=O)[C@@H](NC(=O)[C@H](C(C)C)N(C)C)C(C)C`, the cytotoxicity call was “active”. For `C[C@H](CO)N1C[C@H](C)[C@@H](CN(C)S(=O)(=O)c2ccccc2)Oc2ncc(C#CCN(C)C)cc2C1=O`, the cytotoxicity call is “inactive”. Turning to `O=C(NO)c1ccc(-c2cn(CC[C@@H]3OC(=O)[C@H](Cc4ccccc4)N4CC5=CC(=O)[C@H](C6CC6)[C@H]5[C@H]34)nn2)cc1`, the cytotoxicity call is “inactive”. `CC(C)C(=O)Nc1cccc(Cl)c1`: the cytotoxicity call was “inactive”.
